Data reported in PubChem BioAssay AID1458 (National Center for Advancing Translational Sciences (NCATS), 2008).
Among all 210,000 compounds or so, about 5,900 (2.8%) were called active. Inconclusive means that the source gave no clear call. Such entries were picked first, then a sample of the others. Calls follow the shape of the dose curve; as a rule, active = well fitted activation curve with a large enough effect; inconclusive = small, poorly fitted or top-dose-only effect; inactive = no such curve, though single readings can be large or run the other way. Potencies of inconclusive entries are doubtful fits and often do not repeat.

Assay: qHTS Assay for Enhancers of SMN2 Splice Variant Expression; also: nearly all actives have a fitted effect of over 55% in size; as to activity change, positive = activation: % of control where 0% means no effect
Conditions: HEK293 SMN2-luciferase splicing reporter, luminescence, 30-36 h; activity change, positive = activation: at 46.1 µM (top of the series)
Method in brief: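 qHTS luciferase splicing reporter: luminescence rises when SMN2 exon 7 is included in transfected HEK293 cells. Compound exposure lasted 30-36 h at 37C, with 4.5 mM final sodium butyrate as control, followed by a ONE-Glo read.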
Potency is read from the fitted curve at half-maximal effect; tags tell the direction and shape of the fitted curve.

Row | Structure (SMILES) | Potency | activity change, positive = activation
1 | Cc1ccc(/C=C2\Sc3ccccc3C2=O)s1 | inconclusive: 35.5 µM [activator, partial curve, poor fit] | 
2 | CCOC(=O)N1CCN(Cc2nc(N)nc(Nc3ccc(OC)cc3)n2)CC1 | inconclusive: 3.16 µM [activator, single point] | 
3 | CCc1ccc(/C=N\NC(=O)c2ccc(Br)o2)s1 | active: 11.2 µM | 
4 | COc1cccc(CNC(=S)Nc2cc(C)ccc2C)c1 | inconclusive: 8.91 µM [activator, partial curve] | 
5 | O=c1c(Cl)c(N2CCOCC2)cnn1-c1nc2ccccc2[nH]1 | active: 11.2 µM | 
6 | CCN(Cc1ccccc1)S(=O)(=O)c1ccc(C(=O)N2CCN(c3nc4ccccc4s3)CC2)cc1 |  | inactive: -67.6%
7 | COc1ccc2c(c1)CCc1c(C(=O)N3CCc4ccccc4C3)noc1-2 | inconclusive: 20 µM [activator, single point] | 
8 | O=C(O)CC(CC(=O)Nc1nncs1)c1ccccc1 (stereo not drawn) | inconclusive: 1.26 µM [activator, partial curve, poor fit] | 
9 | COC(=O)Cn1c(=NC(=O)c2ccc(Cl)s2)sc2cc(C)ccc21 | active: 3.98 µM | 
10 | Cc1cc(C2=NNC(=Nc3ccccc3)SC2)c(C)n1C | inconclusive: 31.6 µM [activator, single point] | 
11 | O=C(/C=C/c1ccccc1)C1=C(O)C(=O)N(CCO)C1c1ccccc1[N+](=O)[O-] (stereo not drawn) |  | inactive: 13.2%
12 | O=c1c2c3c(sc2ncn1/N=C/c1ccccc1)CCCC3 | active: 20 µM | 
13 | COc1ccc(C/C(=N\O)c2ccc(OC)cc2)cc1 | inconclusive: 25.1 µM [activator, single point] | 
14 | O=C(CSCc1ccc([N+](=O)[O-])cc1)Nc1ccccc1C(=O)O | inconclusive: 11.2 µM [activator, single point] | 
15 | COc1ccc(C[C@@H]2C(=O)N[C@H](C)C(=O)N(C)[C@@H]3Cc4ccc(cc4)Oc4cc(ccc4O)C[C@H](C(=O)N[C@@H](C)C(=O)N[C@H](C)C(=O)N2C)N(C)C3=O)cc1 |  | inactive: -103% [at 9.22 µM]
16 | O=C(/C=C/c1ccc2c(c1)OCO2)NCc1ccco1 |  | inactive: 27.4%
17 | CCOc1ccc(CNC(=O)C2Cc3cc(S(=O)(=O)N4CCCCCC4)ccc3N2C(C)=O)cc1 (stereo not drawn) |  | inactive: 9.61%
18 | COc1cc(/C=C2/C(=O)c3cccc([N+](=O)[O-])c3C2=O)c(Br)cc1O | inconclusive: 17.8 µM [activator, single point] | 
19 | O=C(Cn1cnc2ccccc2c1=O)c1ccc2ccccc2c1 | inconclusive: 25.1 µM [activator, single point] | 
20 | C(=N/n1c2ccccc2c2ccccc21)/c1ccco1 | inconclusive: 3.98 µM [activator, partial curve, poor fit] | 
21 | Cc1ccc(CNC(=O)Cc2cccs2)cc1 | inconclusive: 20 µM [activator, partial curve] | 
22 | Nn1c(-c2ccccc2Cl)nnc1-c1ccccc1Cl | inconclusive: 15.8 µM [activator, single point] | 
23 | COc1ccc(CC(=O)Nc2ccc(-c3cn4ccccc4n3)cc2)cc1 | inconclusive: 5.62 µM [activator, partial curve] | 
24 | CCOc1ccc(C)cc1S(=O)(=O)n1ccnc1 | inconclusive: 7.08 µM [activator, full curve] | 
25 | CCOC(=O)c1[nH]c2ccc(OC)cc2c1NC(=O)c1ccc(OC)c(OC)c1 |  | inactive: -1.1%

Row | Structure (SMILES) | Potency | activity change, positive = activation
26 | O=C(NC1=NCCS1)c1ccc(N2CCCC2=O)cc1 | inconclusive: 11.2 µM [activator, partial curve] | 
27 | O=C(Nc1cccc(NC(=O)c2ccco2)c1)c1ccc2c(c1)OCO2 |  | inactive: 3.02%
28 | O=C1CN(C(=O)OCc2ccccc2)c2ccccc2N1 | inconclusive: 35.5 µM [activator, single point] | 
29 | CC(C)COc1ccccc1C1CC(=O)Nc2cc3c(cc21)OCO3 (stereo not drawn) |  | inactive: -32%
30 | O=c1[nH]c(CSc2nnc(COc3ccccc3)n2-c2ccccc2)nc2ccccc12 | inconclusive: 1.58 µM [activator, partial curve] | 
31 | Clc1ccccc1Cc1cn2cc(-c3ccccc3)nc2s1 | active: 2.51 µM | 
32 | CCCCOc1ccc(C2=NC(c3ccccc3)=Nc3ccc(OC)cc3N2)cc1 |  | inactive: 5.09%
33 | Cc1[nH]c(=O)[nH]c(=O)c1S(=O)(=O)NCCOC12CC3CC(CC(C3)C1)C2 | inconclusive: 0.0018 µM [activator, full curve, poor fit] | 
34 | CCc1ccc(S(=O)(=O)c2nnn(-c3cccc(C)c3)c2N)cc1 |  | inactive: -27.9%
35 | CCc1nc(Nc2ccc3c(c2)OCO3)c2oc3ccccc3c2n1 |  | inactive: -0.607%
36 | O=C(Cn1ccc2ccccc2c1=O)NCCC(=O)Nc1cccnc1 |  | inactive: 10.2%
37 | CC(C)(C)c1ccc(C(=O)Nc2ncn[nH]2)cc1 | active: 10 µM | 
38 | CCn1nnc(NC(=O)c2ccc([N+](=O)[O-])o2)n1 | inconclusive: 35.5 µM [activator, single point] | 
39 | COc1ccc(Nc2nc(N)nc(CSC(=S)N3CCCCC3)n2)cc1 | inconclusive: 12.6 µM [activator, partial curve, poor fit] | 
40 | Cc1ccc(-n2c(C)cc(C(=O)NS(=O)(=O)c3ccc(C)cc3)c2C)cc1 |  | inactive: 19.9%
41 | O=C(O)c1ccccc1NC(=O)C1CCCO1 (stereo not drawn) |  | inactive: -0.664%
42 | CCOc1ccc(C2=Nc3ccc(Br)cc3C(c3ccc(N4CCOCC4)cc3)=NN2)cc1 | inconclusive: 12.6 µM [activator, partial curve] | 
43 | CCc1nn(CC(=O)Nc2ccc(C)cc2C)c(=O)c2cc3sccc3n12 |  | inactive: 9.89%
44 | C/C(=N\NC(=O)CCc1ccc(S(=O)(=O)N2CCOCC2)cc1)c1ccc(Br)cc1 |  | inactive: -4.25%
45 | O=C(CSc1ncccc1C(=O)O)c1cccc(C(F)(F)F)c1 | inconclusive: 20 µM [activator, partial curve, poor fit] | 
46 | O=C(NC(C(=O)c1ccccc1)n1ccc(=O)[nH]c1=O)c1ccccc1 (stereo not drawn) | inconclusive: 22.4 µM [activator, single point] | 
47 | CC1CC1c1ccc(/C=C(\C#N)C(=O)Nc2ccccc2Cl)o1 (stereo not drawn) | inconclusive: 12.6 µM [activator, partial curve, poor fit] | 
48 | CCOC(=O)C1CCN(CCC(=O)Nc2ccc(C)c(C)c2)CC1 | inconclusive: 3.98 µM [activator, single point] | 
49 | COc1cc(/C=C(\C#N)c2nc3ccccc3n2C)cc(OC)c1O |  | inactive: -12.6%
50 | N#Cc1ccccc1CSc1nc2ccsc2c(=O)n1Cc1ccccn1 | inconclusive: 11.2 µM [activator, partial curve] | 

Row | Structure (SMILES) | Potency | activity change, positive = activation
51 | O=C(Nc1cccc(C(F)(F)F)c1)c1cc2nc(-c3ccccc3)cc(C(F)(F)F)n2n1 |  | inactive: -4.41%
52 | Cc1nc(NC(=O)c2ccccc2)sc1-c1csc(NCc2ccco2)n1 |  | inactive: -10.9%
53 | N/C(=N\OC(=O)c1ccc(Cl)cc1Cl)c1ccccc1 | inconclusive: 5.01 µM [activator, full curve] | 
54 | O=C(Nc1ccc(F)cc1F)c1noc2c1CCC2 | inconclusive: 12.6 µM [activator, partial curve] | 
55 | O=C(c1ccc2ccccc2n1)N1CCN(c2ccccc2Cl)CC1 | inconclusive: 14.1 µM [activator, partial curve, poor fit] | 
56 | COc1cc2c(cc1NC(=O)COc1ccccc1OC)oc1ccccc12 |  | inactive: 6.4%
57 | COc1ccc(-c2nc(CSCC(=O)N3CCN(c4cccc(C)c4)C(C)C3)c(C)o2)cc1OC (stereo not drawn) |  | inactive: -115%
58 | O=C(O)CCC(NS(=O)(=O)c1ccc(N2CCCC2=O)cc1)C(=O)O (stereo not drawn) | inconclusive: 0.224 µM [activator, partial curve, poor fit] | 
59 | CCOc1ccc(C(c2c(NC(=O)c3ccccc3)sc(C)c2C)N2CCN(CCO)CC2)cc1 (stereo not drawn) | inconclusive: 6.31 µM [activator, partial curve, poor fit] | 
60 | O=C(Oc1ccc(-c2cnc3ccccc3n2)cc1)c1ccc(Br)o1 | inconclusive: 31.6 µM [activator, single point] | 
61 | S=C1NC2=C(C(c3ccc(Br)cc3)N1)N1CCC2CC1 (stereo not drawn) | inconclusive: 3.55 µM [activator, single point] | 
62 | CCc1ccc(/C(C)=N/Nc2cc(Cl)nc(C)n2)cc1 |  | inactive: -14.2%
63 | CCOc1ccc(C(=O)Nc2cc(-c3ccccc3)no2)cc1 | inconclusive: 31.6 µM [activator, single point] | 
64 | COc1ccc(/C=C2\CCCC(C(=O)C(F)(F)F)=C2O)cc1OC |  | inactive: -27.1%
65 | COc1ccccc1S(=O)(=O)Cc1ccc(C(=O)N2CCOCC2)o1 | inconclusive: 35.5 µM [activator, single point] | 
66 | CCN(CC)C(=S)SCC(=O)c1ccccc1 | active: 12.6 µM | 
67 | Cc1ccc(S(=O)(=O)Nc2ccc(=O)n(Cc3ccc(Cl)c(Cl)c3)c2)cc1 |  | inactive: -23.5%
68 | CN(CC(=O)N1CCN(c2ccccn2)CC1)S(=O)(=O)c1ccc2ccccc2c1 |  | inactive: 22.4%
69 | COC(=O)c1ccc(OCC(=O)Nc2nn(-c3ccccc3)nc2C(N)=O)cc1 | inconclusive: 0.0224 µM [activator, full curve] | 
70 | CNC(=O)CO/N=C/c1ccc(N(C)C)cc1 | inconclusive: 20 µM [activator, partial curve] | 
71 | Cc1cccc(NS(=O)(=O)c2ccc3nc(-c4ccccc4)[nH]c3c2)c1C | inactive | 
72 | CCn1cc(C(=O)N2CCc3ccccc32)c(=O)c2cc(S(=O)(=O)N3CCOCC3)ccc21 | inconclusive: 0.501 µM [activator, full curve, poor fit] | 
73 | Cc1ccc2c(c1)NC(=O)CC(c1ccccc1)=N2 | inconclusive: 10 µM [activator, partial curve, poor fit] | 
